Laboratory results taken from PubChem BioAssay AID1745845 (National Center for Advancing Translational Sciences (NCATS), 2022).
About 2,600 (0.72%) of roughly 360,000 compounds were called active. This list was built around the results that the source calls inconclusive (neither active nor inactive); the mix of calls is not that of the screen. Calls follow the shape of the dose curve; as a rule, active = well fitted inhibition curve with a large enough effect; inconclusive = small, poorly fitted or top-dose-only effect; inactive = no such curve, though single readings can be large or run the other way. Potencies beside an inconclusive call are fits to weak or partial responses and may not hold up.

Assay: Primary qHTS for Inhibitors of ATXN expression; also: nearly all actives have a fitted effect of over 55% in size
Conditions: HEK-293 ATXN2-luciferase reporter, luminescence, 24 h; activity change, negative = inhibition: at 57 µM (top of the series)
How it was run: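 ATXN2-luciferase reporter cells (luciferase flanked by upstream and downstream ATXN2 gene portions) were treated 24 h at 37 °C with compounds at up to 57 uM. SteadyGlo luminescence gave expression; GF-AFC fluorescence gave viability.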
% is scaled to controls: 0 for no effect and ±100 for the full control effect; potency is read from the fitted curve at half-maximal effect; tags tell the direction and shape of the fitted curve.

Potency, inactive:
CCCCNc1c(-c2ccc(OC)c(SC(C)CC)c2)nc2ccc(Cl)cn12 (stereo not given)
CS(=O)(=O)N1CCC(C(=O)Nc2ccc(F)c(Cl)c2)CC1
COc1ccc(C)cc1NC(=O)CN1CCN(CC(=O)Nc2ccccc2F)CC1
Cc1cccc(-c2cc3c(nn2)-c2ccccc2C3=O)c1
COc1ccc(CCNc2nc3c(c(=O)n(C)c(=O)n3C)n2Cc2ccc(F)cc2)cc1OC
COc1cccc2[nH]c3c(N4CCc5ccccc5C4)ncnc3c12
c1coc(CNc2c3c(nc4ncnn24)CCCC3)c1
COc1cc(NC(=O)c2ccc(C(=O)Nc3cc(OC)c(Cl)cc3OC)cc2)c(OC)cc1Cl
Cc1ccc(NC(=O)c2cc(-c3ccc4c(c3)OCO4)on2)cc1
COCCOC(=O)c1c(NC(=O)CN2CCc3ccccc32)sc(C(N)=O)c1C
O=C(NCc1ccc(Cl)cc1)C(=O)c1cn(CC(=O)N2CCOCC2)c2ccccc12
O=C(Nc1cccc2ccccc12)N1N=CCC1c1ccccc1 (stereo not given)
COc1ccc2c(C)c(CCC(=O)NCc3ccccc3Cl)c(=O)oc2c1C

Potency, active:
COc1cc(OC)cc(-c2cc3nc(C)c(CCC(=O)O)c(C)n3n2)c1 0.708 µM
CCCCCCCCCCCCCCCC[N+](C)(C)Cc1ccccc1 31.6 µM
CC1=C(C)/C(=N\OS(=O)(=O)c2ccccc2)C=CC1=O 10 µM
Nc1ccc2c(c1)C(=O)C(=O)c1ccccc1-2 4.47 µM
O=S(=O)(Nc1ccc(C(O)(C(F)(F)F)C(F)(F)F)cc1)c1ccc(Cl)c2nonc12 17.8 µM

Potency, inconclusive:
CC(=O)c1cccc(-c2ccc3c(c2)C(C)(Cc2ccccc2F)C(=O)N3)c1 (stereo not given) 31.6 µM [inhibitor, single point]
CC1(C)CC(NC(=O)c2cccc(S(=O)(=O)N(Cc3ccccc3)c3ccccc3)c2)CC(C)(C)N1 28.2 µM [inhibitor, single point]
COc1ccc(-c2nc3ccccn3c2NC2CCCCC2)cc1SC1CCCCC1 25.1 µM [inhibitor, single point]
FC(F)Sc1ccc(NC(=S)NCC2CCCCC2)cc1 39.8 µM [inhibitor, single point]
COc1ccc(Nc2nc(N3CCCCC3)nc3ccccc23)c(OC)c1 39.8 µM [inhibitor, partial curve, poor fit]
O=C(CCl)N1CCN2C(=O)c3ccccc3C12c1ccc(Cl)cc1 (stereo not given) 23.8 µM [inhibitor, single point]
C=CCn1c(=N)n(CC(=O)c2ccc(Br)s2)c2ccccc21 14.1 µM [inhibitor, partial curve]
O=C(N/N=C/c1cc(Cl)cc([N+](=O)[O-])c1O)c1cccc(S(=O)(=O)N2CCOCC2)c1 22.4 µM [inhibitor, single point]
COC(=O)c1ccc(OC)c(CN2CCCN(Cc3cc(C)ccc3C)S2(=O)=O)c1 31.6 µM [inhibitor, single point]
CNC(=O)c1sc(N2N=C3/C(=C\c4ccccc4)CCCC3C2c2ccccc2)nc1C (stereo not given) 25.1 µM [inhibitor, partial curve]
C1=CC2=NC34CCCCC3CC3=C(CCCC3)N4C2=CC1=NC1CCCCC1 (stereo not given) 39.8 µM [inhibitor, single point]
COC(=O)c1ccc(NS(=O)(=O)c2ccc3[nH]c4c(c3c2)CCCCC4)cc1 39.8 µM [inhibitor, single point]
CCc1ccc(-c2csc(NC(=O)C3CC(=O)N(c4ccc5c(c4)OCCO5)C3)n2)cc1 (stereo not given) 31.6 µM [inhibitor, single point]
Cc1cc(F)ccc1S(=O)(=O)Nc1ccccc1C(=O)Nc1ccccc1-c1nc2ccccc2[nH]1 39.8 µM [inhibitor, single point]
O=C1[C@H](Cc2ccccc2)NCCCC[C@@H](c2ccc(Cl)cc2)N1Cc1ccc(Cl)cc1 25.1 µM [inhibitor, single point]
Cc1ccc(S(=O)(=O)N2CC3(O)CN(C(=O)OC(C)C)N(C(=O)OC(C)C)CC3(OC(=O)NCc3ccccc3)C2)cc1 (stereo not given) 25.1 µM [inhibitor, partial curve, poor fit]
Cc1ccc(-c2nc(N/N=C/c3cccc([N+](=O)[O-])c3)c3ccccc3n2)cc1 39.8 µM [inhibitor, single point]
O=C1C=CC(c2c[nH]c3ccccc23)CC1 (stereo not given) 28.2 µM [inhibitor, single point]
OCCCCNCc1ccc(OCc2ccc(Cl)cc2)cc1 31.6 µM [inhibitor, single point]
C/C(=N\Nc1cc(N2CCCCC2)nc(C)n1)c1ccc(Br)cc1 11.2 µM [inhibitor, partial curve, poor fit]
COc1cccc(S(=O)(=O)N(C)C[C@@H]2Oc3cc(Br)ccc3S(=O)(=O)N([C@@H](C)CO)C[C@@H]2C)c1 35.5 µM [inhibitor, single point]
Cc1c(C(=O)N2CCOCC2)[nH]c2c1C(=O)CC(c1ccc(Cl)cc1)C2 (stereo not given) 39.8 µM [inhibitor, single point]
CN(C(=O)COc1ccccc1C(=O)NCCOc1ccccc1)c1ccccc1 39.8 µM [inhibitor, single point]
Cc1ccc(S(=O)(=O)N2CCCSCC2)cc1 35.5 µM [inhibitor, partial curve, poor fit]
CCSc1nnc(NC(=O)C(C)(C(F)(F)F)C(F)(F)F)s1 28.2 µM [inhibitor, partial curve, poor fit]
CN(C)c1ccc(NC(=O)Nc2nc(C(N)C3CCCCC3)cs2)cc1 (stereo not given) 35.5 µM [inhibitor, single point]
Cc1csc(NC(=O)c2cnc3ccccc3n2)n1 15.8 µM [inhibitor, single point]
COc1ccc(CNCc2cc3c(C(C)(C)C)nn(-c4ccccc4)c3[nH]c2=O)cc1 28.2 µM [inhibitor, partial curve, poor fit]
O=NN(CC(=O)NNc1ccccc1)CC(=O)NNc1ccccc1 0.398 µM [inhibitor, full curve, poor fit]
COc1ccc(C(=O)C(CN2CCCC2)c2ccccc2)cc1 (stereo not given) 28.2 µM [inhibitor, single point]
COc1ccc(-c2csc(N(CCCN3CCOCC3)C(=O)c3ccco3)n2)cc1 31.6 µM [inhibitor, partial curve, poor fit]
COc1cc(NC(=O)c2cccs2)c(C(=O)OCC(=O)NCc2ccccc2)cc1OC 20 µM [inhibitor, single point]
O=C(NCC(c1cccs1)N1CCOCC1)c1cn(-c2ccccc2)nc1-c1ccc(Cl)cc1 (stereo not given) 28.2 µM [inhibitor, single point]
COc1ccc(C(=O)/C=C/c2ccc(O)cc2)c(O)c1CC=C(C)C 31.6 µM [inhibitor, partial curve]
N/C(=N\OC(=O)c1ccccc1)c1ccccn1 17.8 µM [inhibitor, single point]
CCN(CC)CCNC1=NCCn2c1cc1cc(OC)ccc12 17.8 µM [inhibitor, partial curve]
CC(C)CCNc1nc(N2CCCC2)c2c(c1C#N)CCN(C)C2 39.8 µM [inhibitor, single point]
Cc1onc(-c2ccccc2)c1C(=O)Nc1sc2c(c1C#N)CCC2 11.2 µM [inhibitor, partial curve]
Cc1ccc(Sc2cc(C)nc(-c3ccccn3)n2)cc1 3.55 µM [inhibitor, full curve, poor fit]
O=C(Cn1c(COc2ccccc2)nc2ccccc21)Nc1cc(Cl)cc(Cl)c1 25.1 µM [inhibitor, partial curve, poor fit]
CC(=O)Nc1cc(-c2ccc(N3CCN(C)CC3)cc2)cn2c(-c3ccc(F)c(Cl)c3)cnc12 28.2 µM [inhibitor, single point]
Cc1ccc2[nH]c(=O)c(CN(CCc3ccccc3)C(c3nnnn3Cc3ccco3)C(C)C)cc2c1 (stereo not given) 25.1 µM [inhibitor, single point]
CCCSc1nc(SCC(=O)NCc2ccccc2)c2c3c(sc2n1)COC(C)(C)C3 15.8 µM [inhibitor, partial curve, poor fit]
O=C(CN1C(=O)C2(SCC(=O)N2c2ccc(F)c(F)c2)c2ccccc21)Nc1cccc(Cl)c1 (stereo not given) 39.8 µM [inhibitor, single point]
COc1ccc2c(c1)c(=O)oc1cc(OCC(=O)N3CCc4ccccc4C3)ccc12 31.6 µM [inhibitor, single point]
Cc1c(CCCN)c2ccccc2n1Cc1ccccc1 17.8 µM [inhibitor, partial curve]

Activity change, negative = inhibition, inactive:
C=CCn1cccc(C(=O)Nc2ccc(OCC)cc2)c1=O 49.9% [at 11.3 µM]
